Assay results published in article PMC4336329 (PLoS ONE, 2015).
The whole screen tested about 310,000 compounds, of which about 2,200 (0.71%) showed an effect of 50% or more. The effect is printed as a negative number. The list shows a part of the results.

molecular target: human ether-à-go-go-related gene (hERG) potassium channel (human, UniProt Q12809); test: primary screen, population patch clamp on CHO cells stably expressing hERG
Sequence (Q12809 whole entry, looked up): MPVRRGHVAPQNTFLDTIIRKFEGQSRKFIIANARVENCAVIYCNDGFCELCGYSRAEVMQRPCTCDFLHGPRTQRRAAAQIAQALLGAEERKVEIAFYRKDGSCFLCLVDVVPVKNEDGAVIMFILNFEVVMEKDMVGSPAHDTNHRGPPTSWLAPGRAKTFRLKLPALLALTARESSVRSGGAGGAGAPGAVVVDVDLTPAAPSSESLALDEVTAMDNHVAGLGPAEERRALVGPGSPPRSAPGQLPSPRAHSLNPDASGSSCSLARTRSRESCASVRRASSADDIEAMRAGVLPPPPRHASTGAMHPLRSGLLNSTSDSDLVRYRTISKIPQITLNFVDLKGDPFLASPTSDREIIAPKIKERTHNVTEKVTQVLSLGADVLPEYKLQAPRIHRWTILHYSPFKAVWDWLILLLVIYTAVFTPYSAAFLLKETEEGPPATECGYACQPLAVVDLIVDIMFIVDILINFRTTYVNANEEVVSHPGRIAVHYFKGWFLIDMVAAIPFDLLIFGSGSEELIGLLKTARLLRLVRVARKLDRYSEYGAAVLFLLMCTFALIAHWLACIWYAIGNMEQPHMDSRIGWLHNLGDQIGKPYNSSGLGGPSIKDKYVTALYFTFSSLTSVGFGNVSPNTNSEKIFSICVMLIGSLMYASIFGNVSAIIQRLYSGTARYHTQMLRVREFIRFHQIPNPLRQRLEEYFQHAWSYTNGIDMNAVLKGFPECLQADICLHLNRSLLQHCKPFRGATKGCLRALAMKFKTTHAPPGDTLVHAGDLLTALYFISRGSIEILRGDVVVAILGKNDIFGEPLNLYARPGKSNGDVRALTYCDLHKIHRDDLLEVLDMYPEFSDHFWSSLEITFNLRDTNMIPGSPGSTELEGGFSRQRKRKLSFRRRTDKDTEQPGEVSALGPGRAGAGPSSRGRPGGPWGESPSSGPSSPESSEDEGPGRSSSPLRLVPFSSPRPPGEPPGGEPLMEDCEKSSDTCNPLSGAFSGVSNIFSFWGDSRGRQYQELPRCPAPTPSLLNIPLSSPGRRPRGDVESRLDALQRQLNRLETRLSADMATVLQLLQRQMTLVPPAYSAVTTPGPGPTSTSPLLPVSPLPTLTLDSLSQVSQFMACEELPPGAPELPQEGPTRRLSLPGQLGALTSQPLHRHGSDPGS

Row | Compound | hERG current change (%, negative = inhibition) at 1uM [%]
1 | Cc1cccc(C)c1OCC(=O)Nc1ccc2c(c1)OCCO2 | 13.2
2 | CC(=O)Nc1cccc(NC(=O)CCn2cnc3cc(C)c(C)cc32)c1 | -4.85
3 | CCOC(=O)COc1ccc2cc(C(=O)OCC)c(=O)oc2c1 | 1.79
4 | S=c1[nH]nc(Cn2c(-c3ccccn3)nc3ccccc32)n1-c1ccc2c(c1)OCCO2 | 16.3
5 | CN(CC(=O)NCCc1ccccc1)S(=O)(=O)c1ccccc1 | 10.5
6 | CC(C)(C)C(=O)NC(=S)Nc1ccccc1C(=O)NC1CCCCC1 | -19.3
7 | Cn1c(N)c(C(=O)COC(=O)CSc2ccccc2)c(=O)n(C)c1=O | -9.75
8 | COC(=O)C1=C(c2ccc(F)cc2OCc2ccccc2)C[C@@H]2CC[C@H]1N2C(=O)NC1CCCCC1 | 10.7
9 | Nc1nc(-c2ccco2)nn1C(=O)c1cccnc1 | 14.4
10 | COc1ccc(C(=O)Nc2ccc3nc(N4CCOCC4)sc3c2)cc1OC | 2.38
11 | CCCc1cc(=O)[nH]c(/N=C(/NC(=O)c2ccccc2)Nc2ccc3c(c2)OCCO3)n1 | 12.1
12 | CCOC(=O)N1CCC(NC(=O)CCC(=O)N2CC(C)Oc3ccc(Cl)cc32)CC1 (stereo not shown) | 3.73
13 | O=C(NCC1CCN(Cc2ccc(Cl)cc2)CC1)C1CCCN(c2ncnc3c2nc2n3CCCCC2)C1 (stereo not shown) | -1.72
14 | CCN(CC)S(=O)(=O)c1ccc(N/N=C/c2ccc(O)cc2)nc1 | 12.2
15 | Cc1cc(NC(=O)COC(=O)C2=COCCO2)c([N+](=O)[O-])cc1C | 13.4
16 | Cl.O=C(c1ccco1)N1CCN(C(c2ccccc2Cl)c2nnnn2CC2CCCO2)CC1 (stereo not shown) | -2.23
17 | CCOc1cc(N2CCOCC2)c(OCC)cc1NC(=O)CSc1nc(N)cc(=O)[nH]1 | 9.65
18 | COc1cccc(C(=O)Nc2nnc(S(=O)(=O)N(C)c3ccccc3)s2)c1 | 12.3
19 | O=C(c1cc(S(=O)(=O)N2CCOCC2)c(Cl)cc1Cl)N1CCCCC1 | 6.67
20 | CCc1ccc(NC(=O)NCCN2CCN(c3ccc(OC)cc3)CC2)cc1 | 5.61
21 | CCCCCC(=O)Nc1ccc2oc(-c3cccnc3)nc2c1 | 0.166
22 | O=C(NCCN1CCOCC1)c1ccc2ccccc2n1 | 14.7

Row | Compound | hERG current change (%, negative = inhibition) at 1uM [%]
23 | Cc1ccnc2nc(C(=O)NC3=NCCS3)nn12 | 12.6
24 | S=C1N(c2ccccc2)CN(CCN2CCOCC2)CN1c1ccccc1 | 14.5
25 | Cc1cccc(C(=O)OCCN2CCOCC2)c1.Cl | 7.93
26 | O=C(Nc1ccccc1)c1ccc(NC2CCCCC2)c(S(=O)(=O)N2CCOCC2)c1 | 3.65
27 | CN1C2CCC1CC(NC(=O)c1ccc([N+](=O)[O-])cc1)C2 (stereo not shown) | 12.1
28 | O=C(/C=C/c1ccc(Cl)cc1Cl)Nc1cccc(S(=O)(=O)NC2=NCCC2)c1 | 8.84
29 | O=C1C(C=NCc2ccncc2)=C(O)c2ccccc21 | 1.6
30 | Cc1ccc(NC(=O)c2ccc(CNS(=O)(=O)c3cccc(C(F)(F)F)c3)cc2)cc1 | -1.03
31 | O=C(CSc1n[nH]c(-c2ccncc2)n1)Nc1ccc(Br)cc1 | 7.77
32 | CCC(C)[C@@H](CN)NCC1(c2ccccc2)CC1 (stereo partly shown) | 15.3
33 | COc1cc(C2C3=C(CCCC3=O)Nc3[nH]n(-c4ccccc4)c(=O)c32)ccc1OC(C)=O (stereo not shown) | 11.5
34 | CC(=O)C1=C(O)C(=O)N(c2ccc(C(=O)O)cc2)C1c1ccccc1 (stereo not shown) | 12.6
35 | COc1cc(OC)cc(C(=O)N2CCC(C(=O)N3CCOCC3)CC2)c1 | 14.2
36 | Cc1cccc(OCC(=O)Nc2ccccc2-c2ccccc2)c1 | 12.6
37 | O=C(CN1CCOCC1)Nc1ccc(OCc2ccccc2)cc1 | -4.54
38 | CC(C(=O)Nc1nncs1)N1C(=O)C2C3C=CC(C3)C2C1=O (stereo not shown) | 2.09
39 | O=C(NNc1cc(C(F)(F)F)ccc1Cl)c1ccc(=O)[nH]c1 | 15.8
40 | O=C(CSc1nc2[nH]ncc2c(=O)n1-c1ccccc1Cl)N1CCCC1 | 7.64
41 | Cc1c(C(=O)Nc2nnc(SCc3ccccc3Cl)s2)cccc1[N+](=O)[O-] | 17.4
42 | CNC(=O)/C(=C/c1ccc2c(c1)OCO2)NC(=O)c1ccc(Br)cc1 | -20.3
43 | O=C(CN1C(=O)COc2ccccc21)NCCCN1CCOCC1 | 14.2
44 | CN(C)c1ccc(/C=C(\C#N)C(=O)c2ccccc2)cc1 | 10.1

Row | Compound | hERG current change (%, negative = inhibition) at 1uM [%]
45 | NC(=S)N/N=C/c1cc([N+](=O)[O-])ccc1Cl | 12.6
46 | COC(=O)c1cc(NC(=O)CC2C(=O)NCCN2C(=O)c2ccccc2)cc(C(=O)OC)c1 (stereo not shown) | 13.9
47 | CC(=O)Oc1cccc(C2C3=C(CC(C)(C)CC3=O)Nc3ccccc3N2C(C)=O)c1 (stereo not shown) | 12.2
48 | C/C(O)=C/c1nc2ccccc2[nH]c1=O | 2.08
49 | CCOc1cc(NC(=O)c2cccs2)c(OCC)cc1NC(=O)c1cccnc1 | 17
50 | CNC(=O)c1ccc(-c2ccc(F)cc2)s1 | 6.53
51 | NC(=O)c1ccc(-c2ccc(Br)cc2)o1 | 7.39
52 | O=C(Nc1cccc(NC(=O)c2ccco2)c1)c1cccc(Br)c1 | 4.16
53 | O=C(Cc1ccc(F)cc1)NC(Cc1c[nH]c2ccccc12)C(=O)O (stereo not shown) | 12.4
54 | Cc1cccc(NC(=O)CN2CCN(C(=O)c3cccc(-n4cnnn4)c3)CC2)c1C | -11.9
55 | CCCCCC(=O)N1CCN(CCN=CC2=C(O)CC(c3ccco3)CC2=O)CC1 (stereo not shown) | -74.7
56 | CN(Cc1ccccc1)C(=O)COC(=O)c1ccc2ccccc2n1 | 1.91
57 | CSc1ccccc1C(=O)N1CCOCC1 | 5.71
58 | CN(C)c1nc(N)nc(CSc2nnnn2-c2ccccc2)n1 | 8.57
59 | COc1ccc(C(=O)NNC(=S)NC(=O)c2cccs2)cc1 | 9.11
60 | COc1ccc(Nc2c3c(c(C#N)c4nc5ccccc5n24)CCC3)cc1 | 7.64
61 | C/C(=C1/SC(N2CCOCC2)=NC1=O)c1ccc(Cl)cc1 | 7.69
62 | Cc1ccc(C)c(NC(=O)c2cc(-c3cc(C)ccc3O)n[nH]2)c1 | 15.9
63 | CCC(C)c1ccccc1NC(=O)C(C)N(C)Cc1cccc(OC)c1.O=C(O)C(=O)O (stereo not shown) | 6.47
64 | Cc1oc(-c2ccccc2)nc1CN1C(=O)CN=C(c2ccccc2)c2ccccc21 | 0.0675
65 | CCc1nnc(NC(=O)CSc2nc3cc4c(cc3cc2C)OCCO4)s1 | 5.85
66 | COc1ccc(Nc2nc(-c3cccs3)cs2)cc1 | 15.4

Row | Compound | hERG current change (%, negative = inhibition) at 1uM [%]
67 | OC1CCN(Cc2nc(Cc3ccccc3Cl)no2)CC1 | 11
68 | CC(C)[C@H](NC(=O)c1ccccc1)C(=O)NCCc1ccccc1 | 10.7
69 | CSc1cccc(NC(=O)CCCOc2ccc(Cl)cc2C)c1 | 5.19
70 | O=C(Cc1cc(=O)[nH][nH]1)N/N=C/c1c(F)cccc1Cl | 5.37
71 | COc1ccc(C)cc1S(=O)(=O)N(CC(=O)Nc1cccc([N+](=O)[O-])c1)c1cc(C)cc(C)c1 | 8.09
72 | O=C(Cn1c(=O)oc2cc(S(=O)(=O)NCc3ccccc3)ccc21)N1CCCC1 | 10.6
73 | O=C(CN1CCc2cc3c(cc2C1)OCCCO3)Nc1cccc(Br)c1 | 12.8
74 | CN(C)c1nc(C(N)=O)nc(N2CCOCC2)n1 | 7.24
75 | CCN(Cc1ccccc1)C(c1cccc(C#N)c1)c1nnnn1C(C)(C)C (stereo not shown) | 11.3
76 | COc1cccc(F)c1C(C[N+](=O)[O-])c1c(N)n(C)c(=O)n(C)c1=O (stereo not shown) | 5.57
77 | CNC(=S)N/N=C/c1ccc2c(c1)OCCO2 | 8.3
78 | Cc1ccnc(NC(=O)CCC(=O)N(CC(=O)NCc2ccccc2)Cc2ccccc2)c1 | 10.9
79 | Cc1noc(C)c1CSCC(=O)N1CCN(c2ccc([N+](=O)[O-])cc2)CC1 | -83.4
80 | COC(=S)N/C(=N\S(=O)(=O)c1ccc(Cl)cc1)c1ccccc1 | 13.7
81 | CN1CCN(c2cnn(-c3ccccc3)c(=O)c2Br)CC1 | 13.2
82 | CCc1ccc(NC(=O)CSc2nnc(-c3ccccn3)n2C)cc1 | -0.802
83 | Cc1ccc(N(CCC#N)C(=O)CSc2nc3ccccc3c(=O)[nH]2)cc1 | 6.93
84 | CCC(=O)Nc1cccc(NC(=S)NC(=O)Cc2ccccc2)c1 | 15.5
85 | Cc1noc(NS(=O)(=O)c2ccc(N/C=C\C(=O)c3ccc4c(c3)OCO4)cc2)c1C | 6.54
86 | COc1ccc(/C=C2\Sc3ccc(C(=O)N4CCCC4)cc3N(C)C2=O)cc1OC | 15.4
87 | Cc1cc(Cl)ccc1OCC(=O)OCC(=O)NC1CCCC1 | 9.16
88 | CC(=O)c1cccc(NC(=O)N2CCCC2C(=O)Nc2cc(C)ccc2C)c1 (stereo not shown) | -2.7
